According to PubChem BioAssay AID1346428 (National Center for Advancing Translational Sciences (NCATS), 2018):
About 1,200 (2.5%) of roughly 48,000 compounds were called active. Not shown: some 2% with an inconclusive outcome.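 The calls were made as follows: active = activation of at least 60% and not above a set upper limit (about 1 call in 100 departs from these limits); inconclusive = activation of 40% to 60%, or above that upper limit; inactive = activation under 40%.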 The list shows a part of the results. *1 amine or outer side, *2 acyl side, *3 side chain or, on linkers, in order; H or OH if unused. Where a SMILES comes first, the peptide text is derived from it. Bridges are numbered along the chain shown (N, C = ends). Roman numbers before positions name the chains, in order. [ ]: non-standard residue; d: D form. Actinocin(9to1) = Cc1c2oc3c(C)ccc(C(=O)[*:1])c3nc-2c(C(=O)[*:2])c(N)c1=O; NMeV = CN[C@H](C(=O)O)C(C)C; Sar = CNCC(=O)O

target: Probable G-protein coupled receptor 32 (Homo sapiens) (UniProt O75388); test: qHTS for Agonists of Human Resolvin D1 Receptor DRV1; conditions: CHO-K1 GPR32 beta-arrestin PathHunter luminescence, 90 min; at 76.9 µM; hits give high values; zero percent set by DMSO-only wells; also: 0% is about no effect
How it was run: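 Agonism was scored by beta-Gal fragment complementation (chemiluminescent read, 1 h detection at ambient temperature) reporting beta-arrestin binding to GPR32 in engineered CHO-K1 cells. Compound treatment lasted 90 min at 37 C, normalized to a DMSO basal control.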

UniProt O75388, sequence (O75388 whole entry, looked up, the tested form may be a part): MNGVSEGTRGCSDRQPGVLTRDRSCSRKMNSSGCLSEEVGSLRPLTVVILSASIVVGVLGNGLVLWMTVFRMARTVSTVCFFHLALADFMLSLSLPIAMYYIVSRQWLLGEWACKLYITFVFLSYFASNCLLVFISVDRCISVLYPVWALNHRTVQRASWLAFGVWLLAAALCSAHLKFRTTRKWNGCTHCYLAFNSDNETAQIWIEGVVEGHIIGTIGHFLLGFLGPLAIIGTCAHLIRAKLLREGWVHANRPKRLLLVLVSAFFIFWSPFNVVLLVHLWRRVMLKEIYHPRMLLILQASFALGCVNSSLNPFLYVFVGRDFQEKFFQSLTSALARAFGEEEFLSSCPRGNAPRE

activation, inactive:
CCCc1cc(=O)[nH]c(Nc2ccc(OCC)cc2)n1 -4.36%
Cn1nnnc1SCCNCc1ccc(Cl)c(Cl)c1 -5.94%
COc1ccccc1NC(=O)C1=C(C)Nc2nc(-c3ccco3)nn2C1c1ccccc1F (stereo unspecified) -14.8%
Cc1ccc(Cn2c(C)c3cnn(CC(=O)NCCc4ccc(Cl)cc4)c(=O)c3c2C)cc1 -27.2%
Cc1cccc(S(=O)(=O)c2cn(C)c3cc(N4CCN(c5ccccc5)CC4)c(F)cc3c2=O)c1 -0.563%
COc1cccc(CCNC(=O)c2cnc3sc(N4CCOCC4)nn3c2=O)c1 -9.91%
CNC(=O)c1cnc2sc(N3CCCCCC3)nn2c1=O 3.27%
CCOc1ccc(N(CC)C(=O)CCc2nc(-c3ccccc3F)no2)cc1 -20.4%
COc1ccc(C(=O)Nc2nc3ccccc3n2CCOc2ccc(Cl)cc2)cc1 -25.5%
O=C(NCCc1ccccc1)c1ccc(Cn2c(SCc3ccccc3)nc3cccnc32)cc1 -6.98%
Cc1cccn2c(=O)cc(CSc3nnc(NC(=O)c4ccc(F)cc4)s3)nc12 -9.59%
CCC(Sc1nnc(-c2ccc(OC)c(OC)c2)c(-c2ccc(OC)c(OC)c2)n1)C(=O)NC1CCCC1 (stereo unspecified) -38.9%
COc1cccc(NC(=O)Cn2nc(C)c3c(C)n(-c4ccccc4)nc3c2=O)c1 -16.6%
CCCOc1ccc(Oc2nc(NCC(C)C)nc(N(C)C)n2)nn1 -10.1%
CCc1ccc(NC(=O)C(Cc2ccccc2)NS(=O)(=O)c2ccc3c(c2)c(=O)n(C)c(=O)n3C)cc1 (stereo unspecified) -1.99%
Cc1nc(-n2nc(C)c(CCC(C)C)c2C)sc1C(=O)Nc1cccc(Cl)c1 -3.23%
CCC(C(=O)Nc1ccc(C)c(Cl)c1)n1c(=O)c(-c2ccccc2NC(C)=O)nc2ccccc21 (stereo unspecified) -14.5%
O=C1C(O)=C(O)C(=O)C(O)=C1O 6.17%
Clc1ccc(NCc2nc3ccccc3n2CCOc2ccccc2)cc1 8.47%
COc1ccc(Cl)cc1NC(=O)Cn1c(=O)c2ccccc2n2nncc12 -3.35%
Cc1cccc(C)c1NC(=O)c1sc(-n2nc(C)c(Cc3ccc4c(c3)OCO4)c2C)nc1C -0.313%
Cc1ccc(NC(=O)Cn2nc3c(cc2=O)CCCC3)cc1Cl -3.74%
Cc1nccn1CC1CCc2c(c3ccccc3n2C)C1=O (stereo unspecified) 28.1%
NC(=O)c1cc[n+](CC2=C(C(=O)[O-])N3C(=O)[C@@H](NC(=O)Cc4cccs4)[C@H]3SC2)cc1 2.42%
CCN(C(=O)CSc1nc2ccccc2nc1Cc1ccc(F)cc1)c1cccc(C)c1 -37.7%
Cc1cc(C)cc(NC(=O)c2c(C)oc3nc(C)nc(N4CCCC4)c23)c1 -17.4%
CC(C)CCn1c(=O)c2cccnc2n(CC(=O)Nc2ccccc2F)c1=O -6.07%
COCCc1ccc(OCC2CO2)cc1 (stereo unspecified) -7.07%
Cn1c2ccccc2c2cnn(CC(=O)Nc3ccccc3F)c(=O)c21 -2.46%
COc1cccc(Cn2c(-c3nonc3NC(C)=O)nc3ccccc32)c1 -23.9%
COc1cccc(-c2noc(-c3cc(C(C)C)[nH]n3)n2)c1OC -0.52%
CCOc1ccc(Nc2nn(-c3ccc(OC(F)(F)F)cc3)nc2C(C)=O)cc1 -3.62%
CCc1ccc(OCC(=O)Nc2ncn[nH]2)c(Br)c1 2.01%
COc1ccccc1CNC(=O)CCNS(=O)(=O)c1ccc2c(c1)oc(=O)n2C -7.93%
Cc1cccc(NC(=O)c2sc3nc(-c4cc5ccc(O)cc5oc4=O)[nH]c(=O)c3c2C)c1 1.94%
O=C(COc1ccc(F)cc1)NCc1ccc2c(c1)CCN2C(=O)c1ccccc1 -22.6%
CNC(=O)c1ccc2c(c1)N(Cc1ccccc1Cl)C(=O)c1ccccc1S2 -15.3%
Clc1ccc(-c2noc(-c3cccnc3NCc3ccco3)n2)cc1 0.243%
Cc1ccc(-n2nc(C)c3nc(CCC(=O)Nc4cccc(F)c4)c(=O)n(C)c32)cc1 4.98%
Cc1cccc(CNC(=O)CCCN2C(=O)CCn3nc(-c4cccn4C)cc32)c1 -6.88%
COc1ccc(N2CCN(Cc3nnc(-c4ccc5c(c4)OCO5)o3)CC2)cc1 -17.6%
CCc1cccc(C)c1Nc1c(-c2ccsc2)nc2ncccn12 -23.4%
Cc1ccc2c(c1)c1c3n2CCN(C(=O)c2cccc(C(F)(F)F)c2)C3CCC1 (stereo unspecified) -26.6%
Cc1ccc(C)c(Cn2c3ccccc3c3cnn(CC(=O)NCCc4ccccc4)c(=O)c32)c1 -3.7%
CCOc1c(Cl)cc(C(=O)N(Cc2ccc(N(C)C)cc2)Cc2ccco2)cc1Cl -33.2%
COc1ccc(CNC(=O)C2CCCN(c3nnc(C)c4c(C)n(-c5ccc(C)cc5)nc34)C2)cc1 (stereo unspecified) -0.642%
COc1ccc2c(c1)c(CC(=O)OCC(=O)O)c(C)n2C(=O)c1ccc(Cl)cc1 -17.6%
CCC(Sc1nc2ncccc2o1)C(=O)Nc1ccc(OC)c(OC)c1 (stereo unspecified) -11.3%
CCC1CN(C(=O)N2CCC(C(=O)N3CCN(c4ccccc4F)CC3)CC2)c2ccccc2O1 (stereo unspecified) -15.5%
CCOc1ccccc1N(C)C(=O)c1c2c(nc3ccccc13)C(=O)N(C1CCCCC1)C2 -7.72%
O=S(=O)(c1ccc(Cl)cc1Cl)n1ccnc1 12.3%
CSc1oc(-c2cccs2)nc1S(=O)(=O)c1ccc(Br)cc1 -26.3%
COc1ccc(C2CC(=O)c3cc(-c4nc(-c5cccc(Cl)c5)cs4)c(=O)[nH]c3C2)cc1 (stereo unspecified) 18.7%
Cc1ccc2c(=O)cc(C(=O)Nc3sc4c(c3C(=O)NCC3CCCO3)CCCC4)oc2c1 (stereo unspecified) 4.27%
CCCNC(=O)CN1CCN(c2ccc(NC(=O)c3ccc(OC)cc3)cc2C(=O)O)CC1 -4.56%
COc1ccc(CNC(=O)c2ccc(NC(=O)N3CCSc4ncccc43)cc2)cc1 1.39%
Cc1ccccc1C(=O)N1CCC(C(=O)Nc2ccc(F)cc2F)CC1 38.8%
Cc1nc(N2CCOCC2)c2c(C(=O)N3CCN(c4ccccc4)CC3)c(C)oc2n1 -8.25%
Cc1ccc(S(=O)(=O)c2nc(-c3ccccc3F)oc2NCc2ccccc2)cc1 -4.67%
Cc1c2oc3c(C)ccc(C(=O)N[C@@H]4C(=O)N[C@H](C(C)C)C(=O)N5CCC[C@H]5C(=O)N(C)CC(=O)N(C)[C@@H](C(C)C)C(=O)O[C@@H]4C)c3nc-2c(C(=O)N[C@@H]2C(=O)N[C@H](C(C)C)C(=O)N3CCC[C@H]3C(=O)N(C)CC(=O)N(C)[C@@H](C(C)C)C(=O)O[C@@H]2C)c(N)c1=O (I: T[dV]P[Sar][NMeV] / II: T[dV]P[Sar][NMeV]; ester I:1-I:C, II:1-II:C; linker I:N-II:N via Actinocin(9to1)) -4.42%
Cc1cc2c(cc3c(SCC(=O)Nc4ccc(Cl)cc4F)nncn32)o1 -6.89%
CCOC(=O)c1cccc(NC(=O)NC(C)c2c(-n3cccc3)sc3c2CCN(C)C3)c1 (stereo unspecified) -22.3%
O=C(COc1ccccc1F)Nc1ccc(OCc2cc(=O)n3ccccc3n2)cc1 -10.8%
COc1ccc(CC(=O)N2CCc3cc(OC)c(OC)cc3C2COc2ccc3c(C)cc(=O)oc3c2)cc1OC (stereo unspecified) -2.99%
COCCCN1C(=O)c2oc3ccccc3c(=O)c2C12C(=O)N(C)c1ccccc12 (stereo unspecified) -19.9%
CCOc1ccc(NC(=O)CCc2c(C)nc3c(-c4ccccc4)c(C)nn3c2C)cc1 -0.457%
Cc1ccc(CNC(=O)CSC2=Nc3ccccc3N=C(c3ccc(F)cc3)C2)cc1 -9.18%
O=c1ccc2cc(S(=O)(=O)Nc3ccc(OC(F)(F)F)cc3)ccc2[nH]1 -6.28%
COC(=O)c1ccc(Cn2c(SCc3ccc(F)cc3)nc3ccncc32)cc1 -1.21%
O=C(O)c1ccc(Cn2c(SCc3ccc(F)cc3)nc3ccncc32)cc1 -3.07%
Cc1ccc2nc(NC(=O)CSc3nccn3Cc3ccc(F)cc3)sc2c1 22.8%
COCCNc1ccc2cc(S(=O)(=O)N3CCCCC3)ccc2n1 4.91%
COCCNC(=O)CCCn1c(SCC(=O)NCc2ccc(C)cc2)nc2c(sc3ccccc32)c1=O -8.83%
CCC(C)NC(=O)c1sc2nc(C)c(C(=O)Nc3ccc(C)cc3C)c(-c3ccc(NC(C)=O)cc3)c2c1N (stereo unspecified) -21.8%
COc1ccc(Cn2c(C(=O)O)c(CNCc3ccc(SC)cc3)c3ccc(OC)cc32)cc1 -6.08%
CC(C)NC(=O)CN1C(=O)CCn2nc(-c3cn(C)c4ccccc34)cc21 -8.27%
Cc1ccccc1Cn1c(=O)n(-c2ccc(Cl)cc2)c(=O)c2c3c(sc21)CCCC3 5.89%
CCc1ccc(NS(=O)(=O)c2[nH]ncc2C(=O)OC)cc1 -30.7%
Cc1cc(F)ccc1NC(=O)C1CCC(CNS(=O)(=O)c2ccc3c(c2)CCCC(=O)N3)CC1 (stereo unspecified) -26.4%
CCCS(=O)(=O)N1CCC(C(=O)NCCOC)CC1 0.438%
Cc1ccccc1NC(=O)c1sc2nc3c(cc2c1N)CN(Cc1ccccc1)CC3 15.3%
